# Among all 350,000 compounds or so, about 31,000 (8.9%) were called active. The inconclusive results got no clear call from the source; some entries with a clear call stand among them for comparison. The call rests on the fitted dose curve; in most records, active means well fitted inhibition curve with a large enough effect; inconclusive means small, poorly fitted or top-dose-only effect; inactive means no such curve, though single readings can be large or run the other way. Potencies of inconclusive entries are doubtful fits and often do not repeat.
# Biological target: Histone-lysine N-methyltransferase EHMT2 (Homo sapiens) (UniProt Q96KQ7)
# Test: qHTS Assay for Inhibitors of Histone Lysine Methyltransferase G9a; further: nearly all actives have a fitted effect of over 75% in size
# Conditions: G9a H3K9 monomethylation, AlphaScreen, 2 h; activity, negative = inhibition: at 59 µM (top of the series) unless noted
# Outline: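 G9a (20 nM) was preincubated 15 min with compound, then reacted 2 h at room temperature with 500 nM biotin-H3K9 peptide and 20 µM SAM. Monomethyl-H3K9 detected by AlphaScreen using anti-H3K9me1 antibody.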
# On the % scale 0 is the no-effect control and ±100 the full control effect; potency means the concentration at half of the fitted maximal effect; tags describe the fitted curve by direction and shape.
# Chain of UniProt Q96KQ7 (Q96KQ7 whole entry, looked up): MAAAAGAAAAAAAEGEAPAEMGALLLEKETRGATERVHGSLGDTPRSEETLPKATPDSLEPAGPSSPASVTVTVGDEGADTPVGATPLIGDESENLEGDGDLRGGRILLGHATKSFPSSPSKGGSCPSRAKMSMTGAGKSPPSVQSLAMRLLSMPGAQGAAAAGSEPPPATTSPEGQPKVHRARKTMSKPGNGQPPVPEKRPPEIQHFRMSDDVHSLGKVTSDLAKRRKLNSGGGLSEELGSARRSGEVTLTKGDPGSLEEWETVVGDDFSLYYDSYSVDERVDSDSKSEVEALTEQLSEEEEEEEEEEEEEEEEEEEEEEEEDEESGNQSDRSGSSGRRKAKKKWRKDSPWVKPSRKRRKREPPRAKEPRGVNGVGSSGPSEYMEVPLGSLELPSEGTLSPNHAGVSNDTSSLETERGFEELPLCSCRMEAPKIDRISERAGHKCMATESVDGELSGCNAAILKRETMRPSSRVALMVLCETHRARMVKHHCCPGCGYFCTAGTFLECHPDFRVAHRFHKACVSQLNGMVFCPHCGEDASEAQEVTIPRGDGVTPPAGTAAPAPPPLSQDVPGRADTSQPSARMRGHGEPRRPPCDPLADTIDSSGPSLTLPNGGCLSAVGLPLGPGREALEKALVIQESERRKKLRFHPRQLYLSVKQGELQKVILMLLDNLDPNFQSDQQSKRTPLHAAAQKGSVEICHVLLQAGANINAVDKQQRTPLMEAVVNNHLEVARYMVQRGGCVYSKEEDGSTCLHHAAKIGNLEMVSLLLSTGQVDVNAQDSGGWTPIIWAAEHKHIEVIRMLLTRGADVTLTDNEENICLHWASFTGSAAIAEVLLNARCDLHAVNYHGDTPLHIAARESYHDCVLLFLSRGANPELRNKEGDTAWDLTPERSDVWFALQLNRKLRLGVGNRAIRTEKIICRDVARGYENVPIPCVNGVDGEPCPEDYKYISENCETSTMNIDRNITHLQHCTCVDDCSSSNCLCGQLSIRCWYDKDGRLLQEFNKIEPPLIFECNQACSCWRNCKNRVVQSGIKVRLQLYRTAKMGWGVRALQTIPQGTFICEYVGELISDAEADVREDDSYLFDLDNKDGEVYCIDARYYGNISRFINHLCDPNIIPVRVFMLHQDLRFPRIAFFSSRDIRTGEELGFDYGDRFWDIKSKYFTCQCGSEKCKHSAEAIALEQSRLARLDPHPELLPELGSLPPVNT
Compound,Potency,"activity, negative = inhibition"
COc1ccc(OC)c(S(=O)(=O)N2CCC(C(=O)NC(C)c3ccccc3)CC2)c1 (stereo unspecified),inactive,
CC(C)OCCCNC(=O)CN1C(=O)COc2ccc(S(=O)(=O)N3CCOCC3)cc21,"inconclusive: 39.8 µM [inhibitor, single point]",
O=C(CN1CCCCC1)Nc1ccc(S(=O)(=O)N2CCOCC2)cc1,"inconclusive: 39.8 µM [inhibitor, partial curve, poor fit]",
CCCC(=O)N(Cc1cc(=O)[nH]c2ccccc12)c1ccc(OC)cc1,"inconclusive: 39.8 µM [inhibitor, partial curve, poor fit]",
Cc1ccc(OCC(=O)Nc2sc3c(c2C(N)=O)CCCC3)c(C(C)(C)C)c1,"inconclusive: 3.55 µM [inhibitor, partial curve, poor fit]",
CC(C)Nc1nc(-c2cccnc2)nc(-c2ccccc2)c1C#N,"inconclusive: 39.8 µM [inhibitor, single point]",
CC(C)CC(=O)Nc1ccc(N2CCOCC2)cc1,,inconclusive: -53.7% [inhibitor]
CCc1nnc(NC(=O)CN2C(=O)/C(=C/c3ccc(OC)c(OC)c3)SC2=S)s1,"inconclusive: 50.1 µM [inhibitor, partial curve, poor fit]",
COc1cc(OC)cc(C(=O)NCC(=O)OCc2cc(=O)oc3cc(OC)ccc23)c1,"inconclusive: 89.1 µM [inhibitor, partial curve, poor fit]",
Cc1ccc(N(CC(=O)NC2CCCC2)C(=O)Cn2nnc(-c3ccccc3F)n2)cc1,"inconclusive: 2.51 µM [inhibitor, partial curve, poor fit]",
CCCCN1CCc2c(c3ccccc3n2Cc2ccccc2)C1,"inconclusive: 50.1 µM [inhibitor, partial curve, poor fit]",
Cc1ccc(-n2c(SCC(=O)Nc3ccc4c(c3)OCCO4)nc3c([nH]c4ccccc43)c2=O)cc1,inactive,
COC(=O)c1ccccc1NC(=S)N1CCC(N2CCCCC2)CC1,"inconclusive: 56.2 µM [inhibitor, partial curve, poor fit]",
CCOC(=O)c1ccc(N/C=C\C(=O)c2cccc(OC)c2)cc1,"inconclusive: 35.5 µM [inhibitor, single point]",
O=C(NC(=S)Nc1sc2c(c1C(=O)O)CCCC2)c1ccccc1,"inconclusive: 22.4 µM [inhibitor, single point]",
C=CCn1c(O)c(N=NC(=S)Nc2ccccc2F)c2cc(S(=O)(=O)N3CCOCC3)ccc21,"inconclusive: 14.1 µM [inhibitor, partial curve]",
O=C(CN1CCN(Cc2ccccc2)CC1)Nc1ccc(Br)cc1,,inactive: -1.54% [at 0.501 µM]
Cc1cccn2c(NCc3ccc4c(c3)OCO4)c(-c3ccc(O)cc3)nc12,"inconclusive: 44.7 µM [inhibitor, partial curve]",
CCOc1cc(/C=N/N=C(N)N)ccc1OCc1ccc(Cl)cc1,"inconclusive: 31.6 µM [inhibitor, single point]",
CCSc1nc2ccccc2n1CCC(=O)O,"inconclusive: 35.5 µM [inhibitor, partial curve, poor fit]",
COc1ccc(NC(=O)CN(C)C(=O)CN2C(=O)C3CCCCC3C2=O)cc1 (stereo unspecified),"inconclusive: 89.1 µM [inhibitor, partial curve, poor fit]",

Compound,Potency,"activity, negative = inhibition"
COC(=O)c1ccccc1NC(=O)CSc1nc2nc(C)cc(C)n2n1,inactive,
CCCCN(C(=O)CSc1nnc(-c2ccc(Cl)cc2)o1)c1c(N)n(CC(C)C)c(=O)[nH]c1=O,active: 1 µM,
O=C(N/N=C/c1cc(Br)c(O)c(Br)c1O)c1cccnc1,"inconclusive: 89.1 µM [inhibitor, single point]",
O=C(COC(=O)c1ccccc1Br)Nc1ccc2[nH]c(=O)[nH]c2c1,"inconclusive: 79.4 µM [inhibitor, single point]",
O=C(Cn1ncc2c3ccccc3n(Cc3ccccc3F)c2c1=O)NCCCc1ccccc1,inactive,
CCc1ccc(S(=O)(=O)Nc2cc3c(cc2N2CCOCC2)n(C)c(=O)c(=O)n3C)cc1,inactive,
O=C(Nc1ccccc1)N(Cc1cccnc1)Cc1ccco1,"inconclusive: 3.16 µM [inhibitor, partial curve, poor fit]",
COc1ccc(C(CNC(=O)C(CCSC)NC(=O)c2ccccc2Cl)N2CCOCC2)cc1 (stereo unspecified),inactive,
O=[N+]([O-])c1cc(-c2nnc(Nc3ccccc3)c3ccccc23)ccc1N1CCOCC1,"inconclusive: 25.1 µM [inhibitor, single point]",
O=C(CSc1nc2ccccc2c(=O)n1-c1ccc(F)cc1)Nc1ccc(N2CCOCC2)cc1,active: 44.7 µM,
Cn1cccc1/C=N/N1CCN(Cc2ccccc2Cl)CC1,active: 28.2 µM,
Cc1cccc(Cn2nc(C)cc2NC(=O)CCCn2ccc([N+](=O)[O-])n2)c1,"inconclusive: 100 µM [inhibitor, single point]",
O=C(CN1CCN(c2ccccn2)CC1)N1c2ccccc2Sc2ccc(C(F)(F)F)cc21,"inconclusive: 22.4 µM [inhibitor, partial curve, poor fit]",
COc1ccc(-c2nc3ccccc3s2)cc1NC(=O)COc1cccc(C)c1,inactive,
O=C(COC(=O)CNS(=O)(=O)c1ccc(Br)cc1Cl)Nc1ccc(N2CCOCC2)cc1,"inconclusive: 50.1 µM [inhibitor, partial curve, poor fit]",
CC(=O)c1ccc(OCC(=O)NCC2(N3CCCCC3)CCCCC2)cc1,inactive,
O=[N+]([O-])c1ccccc1S(=O)(=O)N1CCN(CC2CC=CCC2)CC1 (stereo unspecified),active: 20 µM,
CCn1c(SC)nc(O)c(C(c2ccc(OC)c(O)c2)c2c(O)nc(SC)n(CC)c2=O)c1=O,active: 10 µM,
COCCCn1c(Cc2csc(Nc3ccc(F)cc3)n2)nnc1SCC(N)=O,"inconclusive: 70.8 µM [inhibitor, partial curve, poor fit]",
O=C(O)c1ccc(NS(=O)(=O)/C=C/c2ccccc2)cc1O,"inconclusive: 63.1 µM [inhibitor, partial curve, poor fit]",

# From PubChem BioAssay AID504332 (National Center for Advancing Translational Sciences (NCATS), 2011)
